# Measured values: the supplement of paper PMC8728848
# This is one part of the list.
# Experiments:
# Test in all cases: glycan array binding signal (z-score within array); higher = stronger binding
# Settings in all cases: glycan notation: IUPAC condensed, linker removed; mutation: K176L
# [1] = target: Gal(b1-4)GlcNAc(b1-3)Gal(b1-4)[Fuc(a1-3)]GlcNAc(b1-3)Gal(b1-4)[Fuc(a1-3)]GlcNAc
# Procedure, shortened: (§1)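 Columns mapping to the same glycan were averaged after glycan names were converted to IUPAC-condensed notation. The data come from 3228 arrays in the Consortium for Functional Glycomics database, limited to those with an available protein sequence. Binding is reported as a within-array Z-score averaged across arrays of one protein sequence and across linkers.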
# [2] = target: Gal(b1-4)GlcNAc(b1-3)GalNAc
# Procedure, shortened: as §1
# [3] = target: Gal(b1-4)GlcNAc(b1-3)[Gal(b1-4)GlcNAc(b1-6)]Gal(b1-4)GlcNAc
# Procedure, shortened: as §1
# [4] = target: Gal(b1-4)GlcNAc(b1-3)[Gal(b1-4)GlcNAc(b1-6)]GalNAc
# Procedure, shortened: as §1
# [5] = target: Gal(b1-4)GlcNAc(b1-3)[GlcNAc(b1-6)]Gal(b1-4)GlcNAc
# Procedure, shortened: as §1
# [6] = target: Gal(b1-4)GlcNAc(b1-6)Gal(b1-4)GlcNAc
# Procedure, shortened: as §1
# [7] = target: Gal(b1-4)GlcNAc(b1-6)GalNAc
# Procedure, shortened: as §1
# [8] = target: Gal(b1-4)GlcNAc(b1-6)[Gal(b1-3)]GalNAc
# Procedure, shortened: as §1
# [9] = target: Gal3S(b1-3)GalNAc
# Procedure, shortened: as §1
# [10] = target: Gal3S(b1-3)GlcNAc
# Procedure, shortened: as §1
# [11] = target: Gal3S(b1-3)[Fuc(a1-4)]GlcNAc
# Procedure, shortened: as §1
# [12] = target: Gal3S(b1-4)Glc
# Procedure, shortened: as §1
# [13] = target: Gal3S(b1-4)Glc6S
# Procedure, shortened: as §1
# [14] = target: Gal3S(b1-4)GlcNAc
# Procedure, shortened: as §1
# [15] = target: Gal3S(b1-4)GlcNAc6S
# Procedure, shortened: as §1
# [16] = target: Gal3S(b1-4)[Fuc(a1-3)]Glc
# Procedure, shortened: as §1
# [17] = target: Gal3S(b1-4)[Fuc(a1-3)]Glc6S
# Procedure, shortened: as §1
# [18] = target: Gal3S4S(b1-4)GlcNAc
# Procedure, shortened: as §1
# [19] = target: Gal3S6S(b1-4)GlcNAc
# Procedure, shortened: as §1
# [20] = target: Gal3S6S(b1-4)GlcNAc6S
# Procedure, shortened: as §1
# [21] = target: Gal4S(b1-4)GlcNAc
# Procedure, shortened: as §1
# [22] = target: Gal4S6S(b1-4)GlcNAc
# Procedure, shortened: as §1
# [23] = target: Gal6S(b1-4)Glc
# Procedure, shortened: as §1
# [24] = target: Gal6S(b1-4)Glc6S
# Procedure, shortened: as §1
# [25] = target: Gal6S(b1-4)GlcNAc
# Procedure, shortened: as §1
# [26] = target: Gal6S(b1-4)GlcNAc6S
# Procedure, shortened: as §1
# [27] = target: GalNAc(a1-3)Gal
# Procedure, shortened: as §1
# [28] = target: GalNAc(a1-3)GalNAc
# Procedure, shortened: as §1
# [29] = target: GalNAc(a1-3)GalNAc(a1-3)Gal(a1-4)Gal(b1-4)GlcNAc
# Procedure, shortened: as §1
# [30] = target: GalNAc(b1-3)Gal
# Procedure, shortened: as §1
# [31] = target: GalNAc(b1-3)Gal(a1-4)Gal(b1-4)GlcNAc
# Procedure, shortened: as §1
# [32] = target: GalNAc(b1-3)Gal(a1-4)Gal(b1-4)GlcNAc(b1-3)Gal(b1-4)Glc
# Procedure, shortened: as §1
# [33] = target: GalNAc(b1-3)Gal(a1-6)Gal(b1-4)Glc
# Procedure, shortened: as §1
# [34] = target: GalNAc(b1-3)GalNAc
# Procedure, shortened: as §1
# [35] = target: GalNAc(b1-4)GlcNAc
# Procedure, shortened: as §1
# [36] = target: GalNAc(b1-4)GlcNAc(b1-2)Man(a1-3)[GalNAc(b1-4)GlcNAc(b1-2)Man(a1-6)]Man(b1-4)GlcNAc(b1-4)GlcNAc
# Procedure, shortened: as §1
# [37] = target: Glc(a1-4)Glc
# Procedure, shortened: as §1
# [38] = target: Glc(a1-6)Glc(a1-6)Glc
# Procedure, shortened: as §1
# [39] = target: Glc(b1-4)Glc
# Procedure, shortened: as §1
# [40] = target: Glc(b1-6)Glc
# Procedure, shortened: as §1
# [41] = target: GlcA(b1-3)Gal
# Procedure, shortened: as §1
# [42] = target: GlcA(b1-3)GlcNAc
# Procedure, shortened: as §1
# [43] = target: GlcA(b1-6)Gal
# Procedure, shortened: as §1
# [44] = target: GlcNAc(a1-3)Gal(b1-4)GlcNAc
# Procedure, shortened: as §1
# [45] = target: GlcNAc(a1-4)Gal(b1-3)GlcNAc
# Procedure, shortened: as §1
# [46] = target: GlcNAc(a1-4)Gal(b1-4)GalNAc
# Procedure, shortened: as §1
# [47] = target: GlcNAc(a1-4)Gal(b1-4)GlcNAc
# Procedure, shortened: as §1
# [48] = target: GlcNAc(a1-4)Gal(b1-4)GlcNAc(b1-3)Gal(b1-4)Glc
# Procedure, shortened: as §1
# [49] = target: GlcNAc(a1-4)Gal(b1-4)GlcNAc(b1-3)Gal(b1-4)GlcNAc
# Procedure, shortened: as §1
# [50] = target: GlcNAc(a1-4)Gal(b1-4)GlcNAc(b1-3)Gal(b1-4)GlcNAc(b1-3)Gal(b1-4)GlcNAc
# Procedure, shortened: as §1
# [51] = target: GlcNAc(a1-4)Gal(b1-4)GlcNAc(b1-3)Gal(b1-4)[Fuc(a1-3)]GlcNAc(b1-3)Gal(b1-4)[Fuc(a1-3)]GlcNAc
# Procedure, shortened: as §1
# [52] = target: GlcNAc(a1-6)Gal(b1-4)GlcNAc
# Procedure, shortened: as §1
# [53] = target: GlcNAc(b1-2)Gal(b1-3)GalNAc
# Procedure, shortened: as §1
# [54] = target: GlcNAc(b1-2)Man(a1-3)[GlcNAc(b1-2)Man(a1-6)]Man(b1-4)GlcNAc(b1-4)GlcNAc
# Procedure, shortened: as §1
# [55] = target: GlcNAc(b1-2)Man(a1-3)[GlcNAc(b1-2)Man(a1-6)]Man(b1-4)GlcNAc(b1-4)[Fuc(a1-6)]GlcNAc
# Procedure, shortened: as §1
# [56] = target: GlcNAc(b1-2)[GlcNAc(b1-4)]Man(a1-3)[GlcNAc(b1-2)Man(a1-6)]Man(b1-4)GlcNAc(b1-4)GlcNAc
# Procedure, shortened: as §1
# [57] = target: GlcNAc(b1-3)Gal
# Procedure, shortened: as §1
# [58] = target: GlcNAc(b1-3)Gal(b1-3)GalNAc
# Procedure, shortened: as §1
# [59] = target: GlcNAc(b1-3)Gal(b1-4)Glc
# Procedure, shortened: as §1
# [60] = target: GlcNAc(b1-3)Gal(b1-4)GlcNAc
# Procedure, shortened: as §1
# [61] = target: GlcNAc(b1-3)Gal(b1-4)GlcNAc(b1-3)Gal(b1-4)GlcNAc
# Procedure, shortened: as §1
# [62] = target: GlcNAc(b1-3)GalNAc
# Procedure, shortened: as §1
# [63] = target: GlcNAc(b1-3)Man
# Procedure, shortened: as §1
# [64] = target: GlcNAc(b1-3)[GlcNAc(b1-4)][GlcNAc(b1-6)]GlcNAc
# Procedure, shortened: as §1
# [65] = target: GlcNAc(b1-3)[GlcNAc(b1-6)]Gal(b1-4)GlcNAc
# Procedure, shortened: as §1
# [66] = target: GlcNAc(b1-3)[GlcNAc(b1-6)]GalNAc
# Procedure, shortened: as §1
# [67] = target: GlcNAc(b1-4)Gal(b1-4)GlcNAc
# Procedure, shortened: as §1
# [68] = target: GlcNAc(b1-4)GlcNAc
# Procedure, shortened: as §1
# [69] = target: GlcNAc(b1-4)GlcNAc(b1-4)GlcNAc
# Procedure, shortened: as §1
# [70] = target: GlcNAc(b1-4)GlcNAc(b1-4)GlcNAc(b1-4)GlcNAc(b1-4)GlcNAc
# Procedure, shortened: as §1
# [71] = target: GlcNAc(b1-4)GlcNAc(b1-4)GlcNAc(b1-4)GlcNAc(b1-4)GlcNAc(b1-4)GlcNAc
# Procedure, shortened: as §1
# [72] = target: GlcNAc(b1-4)[GlcNAc(b1-6)]GalNAc
# Procedure, shortened: as §1
# [73] = target: GlcNAc(b1-6)Gal(b1-4)GlcNAc
# Procedure, shortened: as §1
# [74] = target: GlcNAc(b1-6)GalNAc
# Procedure, shortened: as §1
# [75] = target: GlcNAc3Prop(b1-4)GlcNAc
# Procedure, shortened: as §1
binder,measurement,setting,value
"Gal 3 (Homo sapiens), P17931 (protein) MADNFSLHDALSGSGNPNPQGWPGAWGNQPAGAGGYPGASYPGAYPGQAPPGAYPGQAPPGAYHGAPGAYPGAPAPGVYPGPPSGPGAYPSSGQPSAPGAYPATGPYGAPAGPLIVPYNLPLPGGVVPRMLITILGTVKPNANILDFQRGNDVAFHFNPRFNENNRRVIVCNTLLDNNWGREERQSVFPFESGKPFKIQVLVEPDHFKVAVNDAHLLQYNHRVKKLNEISKLGISGDIDLTSASYTMI",glycan array binding signal (z-score),[1],-0.264
same,glycan array binding signal (z-score),[2],-0.267
same,glycan array binding signal (z-score),[3],0.064
same,glycan array binding signal (z-score),[4],-0.256
same,glycan array binding signal (z-score),[5],-0.266
same,glycan array binding signal (z-score),[6],-0.269
same,glycan array binding signal (z-score),[7],-0.265
same,glycan array binding signal (z-score),[8],-0.268
same,glycan array binding signal (z-score),[9],-0.267
same,glycan array binding signal (z-score),[10],-0.262
same,glycan array binding signal (z-score),[11],-0.27
same,glycan array binding signal (z-score),[12],-0.271
same,glycan array binding signal (z-score),[13],-0.271
same,glycan array binding signal (z-score),[14],-0.267
same,glycan array binding signal (z-score),[15],-0.264
same,glycan array binding signal (z-score),[16],-0.269
same,glycan array binding signal (z-score),[17],-0.265
same,glycan array binding signal (z-score),[18],-0.263
same,glycan array binding signal (z-score),[19],-0.272
same,glycan array binding signal (z-score),[20],-0.261
same,glycan array binding signal (z-score),[21],-0.268
same,glycan array binding signal (z-score),[22],-0.266
same,glycan array binding signal (z-score),[23],-0.27
same,glycan array binding signal (z-score),[24],-0.263
same,glycan array binding signal (z-score),[25],-0.265
same,glycan array binding signal (z-score),[26],-0.271
same,glycan array binding signal (z-score),[27],-0.27
same,glycan array binding signal (z-score),[28],-0.27
same,glycan array binding signal (z-score),[29],-0.268
same,glycan array binding signal (z-score),[30],-0.266
same,glycan array binding signal (z-score),[31],-0.269
same,glycan array binding signal (z-score),[32],0.854
same,glycan array binding signal (z-score),[33],-0.27
same,glycan array binding signal (z-score),[34],-0.27
same,glycan array binding signal (z-score),[35],-0.271
same,glycan array binding signal (z-score),[36],-0.26
same,glycan array binding signal (z-score),[37],-0.269
same,glycan array binding signal (z-score),[38],-0.269
same,glycan array binding signal (z-score),[39],-0.274
same,glycan array binding signal (z-score),[40],-0.268
same,glycan array binding signal (z-score),[41],-0.26
same,glycan array binding signal (z-score),[42],-0.271
same,glycan array binding signal (z-score),[43],-0.267
same,glycan array binding signal (z-score),[44],-0.27
same,glycan array binding signal (z-score),[45],-0.259
same,glycan array binding signal (z-score),[46],-0.262
same,glycan array binding signal (z-score),[47],-0.264
same,glycan array binding signal (z-score),[48],-0.263
same,glycan array binding signal (z-score),[49],1.57
same,glycan array binding signal (z-score),[50],5.87
same,glycan array binding signal (z-score),[51],-0.241
same,glycan array binding signal (z-score),[52],-0.269
same,glycan array binding signal (z-score),[53],-0.268
same,glycan array binding signal (z-score),[54],-0.269
same,glycan array binding signal (z-score),[55],-0.259
same,glycan array binding signal (z-score),[56],-0.266
same,glycan array binding signal (z-score),[57],-0.27
same,glycan array binding signal (z-score),[58],-0.272
same,glycan array binding signal (z-score),[59],-0.271
same,glycan array binding signal (z-score),[60],-0.18
same,glycan array binding signal (z-score),[61],4.87
same,glycan array binding signal (z-score),[62],-0.27
same,glycan array binding signal (z-score),[63],-0.265
same,glycan array binding signal (z-score),[64],-0.264
same,glycan array binding signal (z-score),[65],-0.271
same,glycan array binding signal (z-score),[66],-0.271
same,glycan array binding signal (z-score),[67],-0.261
same,glycan array binding signal (z-score),[68],-0.264
same,glycan array binding signal (z-score),[69],-0.271
same,glycan array binding signal (z-score),[70],-0.269
same,glycan array binding signal (z-score),[71],-0.272
same,glycan array binding signal (z-score),[72],-0.273
same,glycan array binding signal (z-score),[73],-0.269
same,glycan array binding signal (z-score),[74],-0.268
same,glycan array binding signal (z-score),[75],-0.272
